Test results as given in the DeepSol protein solubility set.

Assay: soluble on expression in E. coli; label from the status in PepcDB or PDB records

Row | Sequence | soluble on expression in E. coli
1 | ARKCSLTGKWTNDLGSNMTIGAVNSRGEFTGTYITAVTATSNEIKESPLHGTQNTINKRTQPTFGFTVNWKFSESTTVFTGQCFIDRNGKEVLKTMWLLRSSVNDIGDDWKATRVGINIFTRLRTQKE | soluble
2 | MINLKCTFAVTAGLCSSLAYAQKQPHIILIMTDQQRGDAMGCMGNESLISPHLDALASEGTLFMNGYSSCPSSTPARAGLLTGQSPWHHGLLGYGKVAPKYNHEMPQMLKDAGYYTFGIGKMHWHPQRIKHGFEGTLLDESGRREDPNFISDYRLWFQIQAPGKNPDETGIGWNDHGAATYKLKESLHPTYWTGEMACQMIQNYDNGNQPLFLKVSFARPHSPYDPPQRFLDMYKDAQVPDPVIGEWCGKYAKELDPEKAAKDAPYGNFGNEYARHSKRYYYANITFIDEQIGRVLQTLKDKGMYDNSLIIFVSDHGDMMGDHYHWRKTYPYEGSTHIPYIIKWPAKAQVVPGKVDNPVELRDLLPTFFEIAGTSVPTDIDGRSLLSLAKGTETEWRKYIDLEHATCYSDDNYWCALTDGKIKYIWYFYTGEEQLFDLAKDPKELHNAVNDKKYKKLLTGMRAEMIRHLSERGEEFVKDGQLVVRKKTMLYGPNYPKEKRLEHHHHHH | soluble
3 | MKVAENQKVYDITIIGGGPTGLFTAFYGGMRQASVKIIESLPQLGGQLSALYPEKYIYDVAGFPKVRAQELVDNLKEQMKKFDPTVCLEEAVDTLEKQADGIFKLVTNKQTHYSKSVIITAGNGAFQPRRLELEGTAKYEKKNLHYFVDDMNKFAGKRVVVFGGGDSAVDWTMMLEPIAEKVTIVHRRDKFRAHEHSVENLMNSRAEVSTPYVPVELIGDDKIEQVVLQHVKTEEKVIIDVDDVIVNYGFVSSLGPIKNWGLDIQKNSILVNSKMETNIPGIYAAGDICTYEGKVKLIACGFGEAPTAVNNAKAYFDPNAKLQPMHSSSMF | not soluble
